{"source": "the supplement of paper PMC10126150", "note": "Sequences with one replicate were seen in a single cluster, so their values are uncertain.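 Also: ATP exposure 15 min at 22 °C before imaging.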"}
{"tested_on": "ATP", "test": "switch fluorescence ratio, 500 uM ATP over buffer (Cy3 cluster intensity, sum of 5 cycles each) (fold (ratio)); higher = stronger signal-on switching upon ATP binding; sequences stand for … in TCGTCGGCAGCGTCAGATGTGTATAAGAGACAGTTTTTTTTTTTTTTTTTTTTTTTTT…TC", "conditions": "aptamer strand: ATP DNA aptamer (quencher-CACCTGGGGGAGTATTGCGGAGGAAGG + anchor), 100 nM annealed; ATP concentration: 500 uM; one replicate", "outline": "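Between each of five buffer/ATP cycles, the flow-cell was stripped with NaOH and re-annealed. Each cycle imaged Cy3-labelled switching-strand clusters, annealed to 100 nM quencher-labelled ATP aptamer on a modified Illumina MiSeq flow-cell, first in selection buffer and then after 15 min with 500 uM ATP at 22 °C. The fluorescence ratio is summed target-cycle over summed buffer-cycle Cy3 intensity per cluster, averaged per switch-domain sequence, with clusters outside 100-1000 RFU excluded.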"}
{"sequence": "GCCCTGAGGG", "switch fluorescence ratio": 1.01}
{"sequence": "GCCCTGATAA", "switch fluorescence ratio": 1.01}
{"sequence": "GCCCTTGATT", "switch fluorescence ratio": 0.986}
{"sequence": "GCCGAATGTT", "switch fluorescence ratio": 0.99}
{"sequence": "GCCGCCACGT", "switch fluorescence ratio": 1.03}
{"sequence": "GCCGCCCTGA", "switch fluorescence ratio": 1.13}
{"sequence": "GCCGCGGAGG", "switch fluorescence ratio": 1.04}
{"sequence": "GCCGCGGTGT", "switch fluorescence ratio": 1.04}
{"sequence": "GCCGGAACTG", "switch fluorescence ratio": 1.09}
{"sequence": "GCCGGATTCA", "switch fluorescence ratio": 0.983}
{"sequence": "GCCGGCTTAC", "switch fluorescence ratio": 0.958}
{"sequence": "GCCGGGTGCG", "switch fluorescence ratio": 0.984}
{"sequence": "GCCGGTAAGA", "switch fluorescence ratio": 1.01}
{"sequence": "GCCGGTATCA", "switch fluorescence ratio": 0.997}
{"sequence": "GCCGGTATTA", "switch fluorescence ratio": 0.991}
{"sequence": "GCCGGTGGAA", "switch fluorescence ratio": 0.997}
{"sequence": "GCCGGTGTCT", "switch fluorescence ratio": 1}
{"sequence": "GCCGTAAAGC", "switch fluorescence ratio": 1.05}
{"sequence": "GCCGTACGTG", "switch fluorescence ratio": 0.983}
{"sequence": "GCCGTAGAGC", "switch fluorescence ratio": 0.985}
{"sequence": "GCCGTAGAGG", "switch fluorescence ratio": 0.96}
{"sequence": "GCCGTAGTC", "switch fluorescence ratio": 0.986}
{"sequence": "GCCGTATACA", "switch fluorescence ratio": 0.965}
{"sequence": "GCCGTGGGGG", "switch fluorescence ratio": 0.974}
{"sequence": "GCCTAAAAGT", "switch fluorescence ratio": 0.979}
{"sequence": "GCCTAATCTT", "switch fluorescence ratio": 1.01}
{"sequence": "GCCTACGACA", "switch fluorescence ratio": 1.46}
{"sequence": "GCCTACTGTA", "switch fluorescence ratio": 1.19}
{"sequence": "GCCTACTGTG", "switch fluorescence ratio": 1.04}
{"sequence": "GCCTAGGGGT", "switch fluorescence ratio": 4.11}
{"sequence": "GCCTAGTGAA", "switch fluorescence ratio": 1.01}
{"sequence": "GCCTATACAT", "switch fluorescence ratio": 0.98}
{"sequence": "GCCTATCCTG", "switch fluorescence ratio": 0.979}
{"sequence": "GCCTATTCAC", "switch fluorescence ratio": 0.997}
{"sequence": "GCCTCATCGA", "switch fluorescence ratio": 1.05}
{"sequence": "GCCTCTCGAT", "switch fluorescence ratio": 1.02}
{"sequence": "GCCTCTCTTA", "switch fluorescence ratio": 1.03}
{"sequence": "GCCTCTGATC", "switch fluorescence ratio": 1.09}
{"sequence": "GCCTGA", "switch fluorescence ratio": 1}
{"sequence": "GCCTGAAAGT", "switch fluorescence ratio": 0.971}
{"sequence": "GCCTGAAATG", "switch fluorescence ratio": 0.973}
{"sequence": "GCCTGAGTAG", "switch fluorescence ratio": 1.02}
{"sequence": "GCCTGCGTTG", "switch fluorescence ratio": 1}
{"sequence": "GCCTGCTGAC", "switch fluorescence ratio": 1.24}
{"sequence": "GCCTGGGAGT", "switch fluorescence ratio": 0.963}
{"sequence": "GCCTGGTAAG", "switch fluorescence ratio": 1.01}
{"sequence": "GCCTGGTGTA", "switch fluorescence ratio": 1.3}
{"sequence": "GCCTGTGATC", "switch fluorescence ratio": 1.02}
{"sequence": "GCCTGTTACA", "switch fluorescence ratio": 0.982}
{"sequence": "GCCTGTTGAC", "switch fluorescence ratio": 1.4}
{"sequence": "GCCTGTTTT", "switch fluorescence ratio": 0.945}
{"sequence": "GCCTTATACG", "switch fluorescence ratio": 1.09}
{"sequence": "GCCTTATCGC", "switch fluorescence ratio": 1.05}
{"sequence": "GCCTTCGGTG", "switch fluorescence ratio": 1.04}
{"sequence": "GCCTTCGTTT", "switch fluorescence ratio": 0.976}
{"sequence": "GCCTTCTAGT", "switch fluorescence ratio": 1.06}
{"sequence": "GCCTTGACTT", "switch fluorescence ratio": 0.984}
{"sequence": "GCCTTTTAGG", "switch fluorescence ratio": 0.967}
{"sequence": "GCGAAACGAA", "switch fluorescence ratio": 0.979}
{"sequence": "GCGAAAGTCA", "switch fluorescence ratio": 1.03}
{"sequence": "GCGAAATGCA", "switch fluorescence ratio": 0.977}
{"sequence": "GCGAAGAAGA", "switch fluorescence ratio": 0.993}
{"sequence": "GCGAAGGGAA", "switch fluorescence ratio": 0.999}
{"sequence": "GCGACAGGTA", "switch fluorescence ratio": 1.02}
{"sequence": "GCGACCAAGC", "switch fluorescence ratio": 1.01}
{"sequence": "GCGACGAGTG", "switch fluorescence ratio": 0.978}
{"sequence": "GCGACTTGGT", "switch fluorescence ratio": 1.03}
{"sequence": "GCGAGACAGG", "switch fluorescence ratio": 1.13}
{"sequence": "GCGAGAGGAC", "switch fluorescence ratio": 0.886}
{"sequence": "GCGAGATGCA", "switch fluorescence ratio": 0.972}
{"sequence": "GCGAGCACGG", "switch fluorescence ratio": 1.08}
{"sequence": "GCGAGCGCCA", "switch fluorescence ratio": 0.983}
{"sequence": "GCGAGCTTTT", "switch fluorescence ratio": 1.04}
{"sequence": "GCGAGGTTTT", "switch fluorescence ratio": 0.971}
{"sequence": "GCGATAACAA", "switch fluorescence ratio": 1.02}
{"sequence": "GCGATAAGAG", "switch fluorescence ratio": 1.1}
{"sequence": "GCGATATAAG", "switch fluorescence ratio": 1.01}
{"sequence": "GCGATATACG", "switch fluorescence ratio": 1.05}
{"sequence": "GCGATCACCT", "switch fluorescence ratio": 1.16}
{"sequence": "GCGATCGGAG", "switch fluorescence ratio": 1.05}
{"sequence": "GCGATCTTCG", "switch fluorescence ratio": 0.991}
{"sequence": "GCGATGGCGA", "switch fluorescence ratio": 1.03}
{"sequence": "GCGATTCGGT", "switch fluorescence ratio": 1.01}
{"sequence": "GCGATTTGTT", "switch fluorescence ratio": 1}
{"sequence": "GCGCAAATGC", "switch fluorescence ratio": 2.08}
{"sequence": "GCGCAAATTC", "switch fluorescence ratio": 1.09}
{"sequence": "GCGCACAGGT", "switch fluorescence ratio": 1.41}
{"sequence": "GCGCAGAGCT", "switch fluorescence ratio": 1.1}
{"sequence": "GCGCAGGGTT", "switch fluorescence ratio": 1.02}
{"sequence": "GCGCAGGTTG", "switch fluorescence ratio": 1.11}
{"sequence": "GCGCAGTCAT", "switch fluorescence ratio": 1}
{"sequence": "GCGCATATCG", "switch fluorescence ratio": 1.1}
{"sequence": "GCGCATCGAT", "switch fluorescence ratio": 1.02}
{"sequence": "GCGCATCGCC", "switch fluorescence ratio": 1.07}
{"sequence": "GCGCCGGATG", "switch fluorescence ratio": 1.01}
{"sequence": "GCGCCGTTTT", "switch fluorescence ratio": 1.01}
{"sequence": "GCGCCTGGGG", "switch fluorescence ratio": 1.02}
{"sequence": "GCGCGCTCTG", "switch fluorescence ratio": 0.986}
{"sequence": "GCGCGGGCGG", "switch fluorescence ratio": 0.978}
{"sequence": "GCGCGTATAA", "switch fluorescence ratio": 1.03}
